57 molecules from PMC4336329 (PLoS ONE, 2015) can be followed below.

Screen size: about 310,000 compounds; about 2,200 (0.71%) showed an effect of 50% or more. The effect is printed as a negative number. The list shows a part of the results.

In this assay the target is human ether-à-go-go-related gene (hERG) potassium channel (human, UniProt Q12809). The assay can be described thus: primary screen, population patch clamp on CHO cells stably expressing hERG.
human ether-à-go-go-related gene (hERG) potassium channel, sequence (Q12809 whole entry, looked up): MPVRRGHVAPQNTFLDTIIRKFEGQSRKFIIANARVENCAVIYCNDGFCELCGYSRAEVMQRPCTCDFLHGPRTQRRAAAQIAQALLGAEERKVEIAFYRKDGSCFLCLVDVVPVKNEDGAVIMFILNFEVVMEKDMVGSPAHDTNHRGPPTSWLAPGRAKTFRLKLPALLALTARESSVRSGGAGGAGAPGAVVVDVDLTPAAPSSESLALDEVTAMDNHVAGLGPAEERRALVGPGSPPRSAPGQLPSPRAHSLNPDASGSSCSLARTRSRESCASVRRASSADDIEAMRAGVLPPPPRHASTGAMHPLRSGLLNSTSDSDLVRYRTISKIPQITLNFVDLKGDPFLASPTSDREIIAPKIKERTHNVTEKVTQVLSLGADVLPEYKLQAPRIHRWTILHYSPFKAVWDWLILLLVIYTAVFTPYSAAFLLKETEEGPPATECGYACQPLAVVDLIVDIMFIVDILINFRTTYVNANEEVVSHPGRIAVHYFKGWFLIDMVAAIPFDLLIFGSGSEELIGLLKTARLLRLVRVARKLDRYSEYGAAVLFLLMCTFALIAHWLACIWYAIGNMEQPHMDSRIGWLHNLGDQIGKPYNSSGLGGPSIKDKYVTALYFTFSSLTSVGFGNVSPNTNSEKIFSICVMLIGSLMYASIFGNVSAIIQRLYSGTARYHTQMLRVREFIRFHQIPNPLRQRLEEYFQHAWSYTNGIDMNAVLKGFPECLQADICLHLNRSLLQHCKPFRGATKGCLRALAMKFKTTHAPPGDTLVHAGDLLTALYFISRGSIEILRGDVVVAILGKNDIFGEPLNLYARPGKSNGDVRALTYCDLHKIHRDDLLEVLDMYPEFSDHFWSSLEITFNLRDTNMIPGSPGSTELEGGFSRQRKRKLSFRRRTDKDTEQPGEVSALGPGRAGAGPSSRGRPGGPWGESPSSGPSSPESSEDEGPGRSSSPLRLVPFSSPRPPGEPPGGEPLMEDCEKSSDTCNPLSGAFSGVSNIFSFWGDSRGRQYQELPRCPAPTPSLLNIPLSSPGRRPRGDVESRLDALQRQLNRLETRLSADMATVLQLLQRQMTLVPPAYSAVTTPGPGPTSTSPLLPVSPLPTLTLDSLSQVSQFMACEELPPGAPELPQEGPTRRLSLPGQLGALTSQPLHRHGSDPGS
For `CCN1CCC(O)(c2ccccc2)C(C(=O)c2ccccc2)C1` (stereo not drawn), the “hERG current change (%, negative = inhibition) at 1uM” value is recorded as 1.95%.
For `Cc1c(Cl)cccc1NC(=O)CN1CCC(C(O)(c2ccccc2)c2ccccc2)CC1`, the “hERG current change (%, negative = inhibition) at 1uM” value is -0.413%.
With `COC(=O)c1csc(S(=O)(=O)N2CCCCC2)c1OC`, the “hERG current change (%, negative = inhibition) at 1uM” value is 3.59%.
In the case of `CCc1ccc(C2N(c3ccc(OC)cc3)C(=O)C3CCCN32)cc1` (stereo not drawn), the “hERG current change (%, negative = inhibition) at 1uM” value turned out to be 2.49%.
Consider `NC(=O)Cn1cc(C=C2C(=O)NC(=O)NC2=O)c2ccccc21`, for which the “hERG current change (%, negative = inhibition) at 1uM” value was 15%.
`CCOc1ccc(N2CC(C(=O)Nc3nnc(C4CCCCC4)s3)CC2=O)cc1` (stereo not drawn): the “hERG current change (%, negative = inhibition) at 1uM” value is reported as -13.2%.
For the molecule `CCc1nnc(NC(=O)[C@@H](NC(=O)c2cccc(S(=O)(=O)N3CCOCC3)c2)C(C)C)s1`, the “hERG current change (%, negative = inhibition) at 1uM” value is recorded as -1.33%.
Regarding `CC1CN(CC(=O)Nc2cccc(C(=O)Nc3cccc(C(F)(F)F)c3)c2)CC(C)O1` (stereo not drawn), the “hERG current change (%, negative = inhibition) at 1uM” value is on record as -6.35%.
Under `Cn1c(C(=O)NCCOc2ccccc2Cl)cc(=O)n(C)c1=O` stands 9.81%; under `Cc1c(C(=O)OCC(=O)N(C)C2CCS(=O)(=O)C2)oc2ccc(Br)cc12` (stereo not drawn), -9.89%.
Turning to `O=C(/C=C/c1ccc(S(=O)(=O)N2CCOCC2)cc1)NCc1ccccc1`, the “hERG current change (%, negative = inhibition) at 1uM” value is -2.19%.
Under `CCn1c(COc2cccc(C)c2)nc2ccccc21` stands 3.8%.
As for `CN1CCC[C@H]1c1cccnc1.O=C(O)C(O)C(O)C(=O)O`, the “hERG current change (%, negative = inhibition) at 1uM” value was 9.62%.
As for `CCOc1ccc(C2NC(=O)NC(C)=C2C(=O)OCc2ccccc2)cc1` (stereo not drawn), the “hERG current change (%, negative = inhibition) at 1uM” value is 10.6%.
Regarding `CCC(=O)Nc1nnc(-c2ccncc2)s1`, the “hERG current change (%, negative = inhibition) at 1uM” value is 19.6%.
Regarding `COc1ccc2c(c1)cc1c(=O)n(CC(=O)NC(C)CCc3ccccc3)nc(C)n12` (stereo not drawn), the “hERG current change (%, negative = inhibition) at 1uM” value was 16.2%.
The figure for `CC1CN(c2nc3c(c(=O)n(C)c(=O)n3C)n2Cc2c(Cl)cccc2Cl)CC(C)O1` (stereo not drawn) is -1.22%; for `CCOCc1nnc(NC(=O)CCC2CCCCC2)s1` it is 12.8%.
The figure for `Cn1cnnc1SCC(=O)OCN1C(=O)c2ccccc2C1=O` is 7.64%.
Under `Cc1nc(C2CCC3C4CCC5=CC(=O)CC[C@]5(C)C4CC[C@]23C)cs1` (stereo partly drawn) stands 16.6%; under `CC1=C/C(=N\OC(=O)/C=C/c2ccccc2)C(C)=CC1=O`, 6.8%; under `COc1ccc(C2c3ccc4ccccc4c3Oc3ncn(CCCO)c(=N)c32)cc1OC` (stereo not drawn), -5%.
For the molecule `COc1ccc(OC)c(C2Nc3nc4ccccc4n3C(C)=C2C(=O)Nc2ccc(C)cc2C)c1` (stereo not drawn), the “hERG current change (%, negative = inhibition) at 1uM” value is given as -5.3%.
Under `CNC(=O)c1c(NC(=O)CCS(=O)(=O)c2ccc(Cl)cc2)sc2c1CCN(C(=O)OC)C2` stands -5.93%.
Consider `O=C(Nc1ccc(SC(F)F)cc1)C1CC(=O)N(Cc2ccccc2)C1` (stereo not drawn), for which the “hERG current change (%, negative = inhibition) at 1uM” value was -18.9%.
On to `CCOc1ccccc1NC(=S)NCc1ccco1`, for which the “hERG current change (%, negative = inhibition) at 1uM” value was 14.2%.
As to `CCc1ccc(-c2cc3c(=O)n(CC(=O)N4CCCCCC4)nc(C)n3n2)cc1`, the “hERG current change (%, negative = inhibition) at 1uM” value was 10.9%.
With `C=CCc1cccc(CNc2ccc(Br)cc2)c1O`, the “hERG current change (%, negative = inhibition) at 1uM” value is on record as 8.86%.
The figure for `COc1ccc(NC(=O)CN2CCN(C(=O)N3CCOCC3)CC2)cc1` is 8.73%; for `COc1ccc(C(C2C(=O)CC(C)(C)CC2=O)C2C(=O)CC(C)(C)CC2=O)cc1COCC(F)(F)F` it is -3.01%; for `CC(C)N(Cc1ccccc1)C(=O)c1ccc2c(c1)OCO2` it is 4.76%.
The figure for `CC(CCn1cccn1)NC(=O)c1cc(COc2ccc(F)cc2Cl)on1` (stereo not drawn) is 2.2%.
The figure for `CN1C(=O)/C(=C/c2ccc(OCc3cccc(F)c3)cc2)NC1=S` is 15.5%.
Regarding `COCCCn1c(C23CC4CC(CC(C4)C2)C3)n[nH]c1=S`, the “hERG current change (%, negative = inhibition) at 1uM” value is 12.8%.
Under `C=CCc1cc(C=O)cc(OCC)c1OCc1ccc(Cl)cc1` stands 18.5%.
Under `CCN(CC1CCCN(CCc2cccc(OC)c2)C1)C(=O)c1ccoc1` (stereo not drawn) stands -14.5%; under `COC(=O)NNC1=CC(=O)CC(C)(C)C1`, 15.1%.
Consider `O=[N+]([O-])c1ccccc1S(=O)(=O)Nc1nc2ccccc2s1`, for which the “hERG current change (%, negative = inhibition) at 1uM” value is listed as -9.12%.
For `CC(C)Oc1ccc(S(=O)(=O)N2CCOCC2)cc1NC(=O)CC1CCCC1`, the “hERG current change (%, negative = inhibition) at 1uM” value is 1.28%.
Under `Cc1ccc(C(NC(=O)N2CCCC2)C(Cl)Cl)cc1F` (stereo not drawn) stands -7.77%; under `COc1ccc(OC)c(NC(=O)c2nnn(CC(=O)Nc3ccc4c(c3)OCO4)c2N)c1`, 12.7%.
In the case of `CCn1c(NC)cc(=O)n(C)c1=O`, the “hERG current change (%, negative = inhibition) at 1uM” value was 13.9%.
As to `CC(=O)Nc1ccc(NC(=O)CN2CCN(c3ccccn3)CC2)cc1`, the “hERG current change (%, negative = inhibition) at 1uM” value came to 11.7%.
Consider `COc1ccc(S(=O)(=O)N(C(=O)c2ccncc2)c2ccc3oc4c(c3c2)CCCC4)cc1`, for which the “hERG current change (%, negative = inhibition) at 1uM” value turned out to be 5.33%.
The figure for `O=C1c2ccccc2C2=Nc3ccccc3SC(c3ccc(Cl)cc3)C12` (stereo not drawn) is 10.9%.
The figure for `Cc1ccccc1C(=O)N/N=C1/SCC(=O)N1Cc1ccccc1` is -1.25%; for `Cc1cc2c3c(c1C)C(=O)C(=O)N3C(C)(C)CC2C` (stereo not drawn) it is 9.63%; for `CC(=O)c1ccccc1NC(=O)COC(=O)/C=C/c1ccc(OC(F)F)cc1` it is 16%.
The figure for `O=C(Cc1ccc(Cl)cc1)Nc1ccc(S(=O)(=O)Nc2cnc3ccccc3n2)cc1` is 17.3%; for `Cc1ccccc1NC1=C(Cl)C(=O)N(C2CCCCC2)C1=O` it is 4.73%.
Turning to `Cc1ccccc1C(=O)N1CCN(c2ccc(NC(=O)Cc3ccccc3)cc2)CC1`, the “hERG current change (%, negative = inhibition) at 1uM” value was 5.03%.
Under `Cc1ccccc1Nc1nnc(SCC2CCCCO2)s1` (stereo not drawn) stands 4.14%.
As to `Nc1c(C(=O)N2CCOCC2)sc2nc3c(cc12)CCC3`, the “hERG current change (%, negative = inhibition) at 1uM” value was determined as 6.1%.
Under `Cc1cccc(OCCSc2ncnc3nc[nH]c23)c1` stands 16.8%.
For the molecule `CCC(=O)N1c2ccc(S(=O)(=O)CCC(=O)N3CCn4c3nc3ccccc34)cc2CC1C` (stereo not drawn), the “hERG current change (%, negative = inhibition) at 1uM” value was 9.5%.
`Cc1sc(NC(=O)c2cc(-c3ccccc3)nc3ccccc23)c(C(N)=O)c1C`: the “hERG current change (%, negative = inhibition) at 1uM” value was found to be 14.6%.
Consider `O=c1[nH]c2ccc(Cl)cc2c(-c2ccccc2)c1N1CCN(CCO)CC1`, for which the “hERG current change (%, negative = inhibition) at 1uM” value is -43%.
